Results reported in paper PMC4336329 (PLoS ONE, 2015).
Screen size: about 310,000 compounds; about 14,000 (4.5%) showed an effect of 50% or more. The effect is printed as a negative number. This is one part of the list.

Target: human ether-à-go-go-related gene (hERG) potassium channel (human, UniProt Q12809)
Experiment: primary screen, population patch clamp on CHO cells stably expressing hERG
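Note: peak tail current of the secondary pulse compared with the same well before compound.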

human ether-à-go-go-related gene (hERG) potassium channel, sequence (Q12809 whole entry, looked up): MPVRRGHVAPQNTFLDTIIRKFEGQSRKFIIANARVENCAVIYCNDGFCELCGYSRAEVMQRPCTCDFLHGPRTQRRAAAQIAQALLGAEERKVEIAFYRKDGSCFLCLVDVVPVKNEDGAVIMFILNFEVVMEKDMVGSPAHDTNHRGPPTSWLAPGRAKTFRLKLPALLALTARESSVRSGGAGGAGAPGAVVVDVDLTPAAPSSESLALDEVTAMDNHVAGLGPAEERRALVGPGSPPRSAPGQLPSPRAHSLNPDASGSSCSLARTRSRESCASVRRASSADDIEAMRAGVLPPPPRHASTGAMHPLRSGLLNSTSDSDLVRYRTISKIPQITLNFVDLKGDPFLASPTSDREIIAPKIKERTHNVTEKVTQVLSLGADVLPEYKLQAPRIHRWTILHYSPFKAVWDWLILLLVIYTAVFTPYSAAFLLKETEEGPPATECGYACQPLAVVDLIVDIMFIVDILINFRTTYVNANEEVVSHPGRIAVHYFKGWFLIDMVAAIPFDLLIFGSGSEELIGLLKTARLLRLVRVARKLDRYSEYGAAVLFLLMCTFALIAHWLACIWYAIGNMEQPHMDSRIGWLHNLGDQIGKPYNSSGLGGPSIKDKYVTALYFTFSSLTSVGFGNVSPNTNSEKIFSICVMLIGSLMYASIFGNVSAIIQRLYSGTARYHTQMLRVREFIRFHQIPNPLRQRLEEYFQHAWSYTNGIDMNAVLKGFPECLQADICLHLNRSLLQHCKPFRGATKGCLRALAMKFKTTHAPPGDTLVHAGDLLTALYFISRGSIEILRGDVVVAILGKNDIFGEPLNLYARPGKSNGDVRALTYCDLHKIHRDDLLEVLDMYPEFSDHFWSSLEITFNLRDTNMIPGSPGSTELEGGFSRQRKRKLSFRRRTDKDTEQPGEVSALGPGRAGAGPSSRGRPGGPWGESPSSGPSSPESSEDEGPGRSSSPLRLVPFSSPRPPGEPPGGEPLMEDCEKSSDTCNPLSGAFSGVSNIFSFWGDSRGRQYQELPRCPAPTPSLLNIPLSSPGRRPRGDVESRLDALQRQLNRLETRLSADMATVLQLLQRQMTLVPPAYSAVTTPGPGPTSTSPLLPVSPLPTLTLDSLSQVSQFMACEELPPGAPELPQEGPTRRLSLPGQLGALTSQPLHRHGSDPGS

Structure (SMILES) | hERG current change (%, negative = inhibition) at 10uM [%]
O=C(NCCN1CCOCC1)c1sc2ccccc2c1Cl | -6.21
N#Cc1c(NC(=O)CSc2ncnc3c2cnn3-c2ccccc2Cl)sc2c1CCCC2 | 3.26
OCc1cc(-c2ccccn2)no1 | 5.49
O=C(COC(=O)c1cc([N+](=O)[O-])ccc1N1CCOCC1)Nc1ncc(Cl)cc1Cl | -29.2
CSc1ncccc1C(=O)OCC(=O)c1[nH]c(C)c(C(C)=O)c1C | 3.77
Cc1ccc(S(=O)(=O)N2CCOCC2)cc1NC(=O)CSCc1c(C)noc1C | -8.77
O=C(CN1CCN(c2ccccn2)CC1)Nc1cccc(F)c1 | 5.56
c1csc(-c2nc3ccccc3[nH]2)c1 | 13.7
COc1cc2c(cc1OC)C(c1cccc([N+](=O)[O-])c1)N(C(=O)CCC(=O)O)CC2 (stereo not shown) | 14.2
COc1ccc(C2CC3(CC(C)(C)NC(=O)N3)Oc3cc(O)ccc32)cc1 (stereo not shown) | -20.3
COc1c(Cl)ccc(Cl)c1C(=O)NC(=O)Nc1nc(C)cc(C)n1 | -6.22
CCOC(=O)c1c(-n2cccc2)sc2c1CCCC2=O | -17
O=C(Nc1ccc(Cl)cc1)c1ccc(-n2cncn2)c([N+](=O)[O-])c1 | -41.1
CN(C)S(=O)(=O)c1ccc(Cl)c(C(=O)NNC(=O)Cc2nc3ccccc3n2C)c1 | -3.96
CCOC(=O)Nc1ccc([N+](=O)[O-])cc1C | 2.48
CCCn1c(SCC(=O)Nc2cccc(F)c2)nc(O)cc1=O | 23.1
Oc1ccc(/C=N/n2c(-c3ccco3)csc2=Nc2cccnc2)c(O)c1 | 5.3
CC(c1ccco1)N(C(=O)C12CC3CC(CC(C)(C3)C1)C2)c1ccccn1 (stereo not shown) | -2.41
O=C(NCc1ccco1)c1cccnc1Cl | 1.19
Cc1ccc(NC(=S)N(CCCN2CCC(C)CC2)Cc2ccco2)cc1C | -70.3
Br.CCN(CC)CCn1c(=N)n(CC(=O)c2ccc(C)cc2)c2ccccc21 | -40.8
CCc1ccc(Oc2coc3cc(OC(=O)c4cc5ccccc5oc4=O)ccc3c2=O)cc1 | -6.46

Structure (SMILES) | hERG current change (%, negative = inhibition) at 10uM [%]
CCOC(=O)C(=O)Nc1nnc(COc2ccccc2)s1 | 7.18
COc1ccc(C(=O)CCC(=O)Nc2cc(Cl)c(O)c(Cl)c2)cc1 | 17.3
CCNC(=O)COC(=O)c1cc(C)n(-c2ccccc2)c1C | 19.5
COc1cccc(NC(=O)CN(C)C(=O)c2ccc(COc3ccccc3)o2)c1 | 3.73
COc1ccccc1N1C(=O)CCC1(C#N)c1ccccc1 (stereo not shown) | -12.7
CCNC(=S)NCc1ccc2c(c1)OCO2 | 6.19
CCOCC(=O)Nc1cccc(Br)c1 | -1.9
O=C(CN=C1NS(=O)(=O)c2ccccc21)OCC(=O)c1cc(F)ccc1F | 9.53
CC(=O)N1CCOc2ccc(S(=O)(=O)N3CCN(c4cc(C)ccc4C)CC3)cc21 | 10.7
CN1[C@@H]2CC[C@H]1CC(OC(=O)c1c[nH]c3ccccc13)C2.Cl (stereo partly shown) | -48.1
Cc1ccc2c(c1)COc1c3ccc(C(=O)N[C@@H](C)CO)cc3nn1-2 | 8.4
CN(C(=O)c1cc(COc2c(F)cccc2F)on1)C1CCOC1 (stereo not shown) | -3.85
Cc1ccc(-n2nc(C)c3c(=O)[nH]c(C(F)(F)F)nc32)cc1 | -3.11
CC(C)CCSc1nnc(N)s1 | 16.7
Cn1c(C(=O)c2ccccc2)nc2ccccc21 | -0.119
Fc1ccccc1OCCCCCCN1CCCC1 | -38.2
Cc1onc(-c2cccc(Cl)c2Cl)c1C(=O)O/N=C(\N)c1ccc([N+](=O)[O-])o1 | -65
COc1ccc(SC[C@H](Cc2ccccc2)N2CC[C@@H](C)CCC2=O)cc1 | -20.1
Cc1ccc2sc(-c3ccc(NC(=O)CCN4C(=O)c5ccccc5C4=O)cc3)nc2c1 | 0.663
O=C(COC(=O)COc1ccccc1[N+](=O)[O-])Nc1ccccc1Br | 3.82
CCC(=O)Nc1ccc(F)c(Cl)c1 | 20.5
Cc1nc2ccc(S(=O)(=O)N(C)CC(=O)N3CCc4ccccc4C3)cc2s1 | -53.2

Structure (SMILES) | hERG current change (%, negative = inhibition) at 10uM [%]
CN1C(=O)S/C(=C/c2cccnc2)C1=O | -0.904
O=C(Nc1ccc(C(=O)N2CCOCC2)cc1)Nc1ccc(Cl)cc1Cl | 9.11
Cc1cc2cc(CCNC(=O)CCCc3ccccc3)c(=O)[nH]c2cc1C | 15.5
COc1ccc(CNC(=O)CN(c2cc(C)cc(C)c2)S(=O)(=O)c2c(C)[nH]c(=O)[nH]c2=O)cc1 | 5.52
CCCCC(CC)CNC(=O)C(=O)c1ccccc1NC(C)=O (stereo not shown) | 0.488
CCCOC(=O)c1c(NC(=O)c2cnn3c2NC(c2ccccc2)CC3C(F)(F)F)sc2c1CCCC2 (stereo not shown) | -6.38
O=C(CCc1ccccc1)Nc1ccc(NC(=O)C2CC2)nc1 | -6.17
CC(=O)c1cccc(NC(=O)C(C)OC(=O)CCC2CCCCC2)c1 (stereo not shown) | -4.11
O=C(Nc1ccccc1C(=O)N1CCOCC1)C1CC(=O)N(C2CCCC2)C1 (stereo not shown) | 21.1
CCC[N+]12CCC(CC1)C(=C(c1ccccc1)c1ccccc1)C2.[Br-] | -70.1
COC(=O)C1CC(O)CN1C(=O)Nc1cccc(C(F)(F)F)c1 (stereo not shown) | 26.2
COc1ccc(CN(C(=O)c2ccco2)c2ccc(C)cc2)cc1OC | -7.32
Cc1cccc(NC(=O)NCC(F)(F)F)n1 | 6.1
CCN1CCN(c2ccc(NC(=O)c3cnccn3)cc2)CC1 | 11.9
COc1ccc(C2/C=C\CN(C(=O)Nc3ccc(C(F)(F)F)cc3)CC(=O)N2Cc2ccc(F)cc2)cc1 (stereo not shown) | 6.55
CC(C)N(CCn1cnc2c([nH]c3ccccc32)c1=O)C(C)C | -68.1
Cn1c(COc2ccccc2)nc2ccccc21 | 9.93
CC(=O)c1cccc(NC(=O)CN2C(=O)NC3(CCCCCCC3)C2=O)c1 | -17.6
CC(=O)C1=C(c2ccccc2)NC(=O)NC1c1ccccc1OCC(=O)Nc1ccccc1 (stereo not shown) | 1.5
CCn1c(CSc2nc(C)cc(C)n2)nnc1SCC(=O)Nc1ccccc1 | -16.5
Cc1ccc(C)c(NC(=S)N=Nc2c(O)n(C)c3ccc(S(=O)(=O)N4CCOCC4)cc23)c1 | 19.7
COc1ccc(-c2cc(C(=O)Nc3c(F)cc(F)cc3Br)no2)cc1 | 16.3

Structure (SMILES) | hERG current change (%, negative = inhibition) at 10uM [%]
O=C(COc1ccc2ccccc2c1)Nc1ccc(Br)cc1C(=O)O | 8.35
COc1ccc(S(=O)(=O)CC2(O)CCN(C(=O)C(C)(C)C)CC2)cc1 | 16
COC(=O)c1ccc2c(=O)n(CC3CCCO3)c(SCC(=O)Nc3ccccc3OC)nc2c1 (stereo not shown) | -4.41
CN(CC(=O)Nc1cccc(F)c1)C(=O)CNS(=O)(=O)c1ccc(N(C)C)c([N+](=O)[O-])c1 | -3.07
CC(C)Cc1nnc(NC(=O)CSc2nc(N)cc(=O)[nH]2)s1 | 4.59
COc1cc2c(c(OC)c1OC)-c1c(cc(OC)c(OC)c1OC)C[C@](C)(O)[C@@H](C)C2 | -73.7
CCOC(=O)C1CCN(C(=O)CN(C)S(=O)(=O)c2cc(C)ccc2OC)CC1 | -14
COC(=O)c1cc(NC(=O)Cc2ccc(OC)cc2)cc(C(=O)OC)c1 | 12.8
CN(C)CCCNC1=CC(=O)CC(c2ccccc2)C1 (stereo not shown) | 3.58
COc1cccc(CC(=O)N2CCCC(CO)(Cc3ccc(F)cc3F)C2)c1 (stereo not shown) | -0.432
C=CCc1cc(C)ccc1OCCOCCC(C(=O)OCC)C(=O)OCC | 5.79
O=C(COc1ccc(Cl)cc1)OCC(=O)c1ccc[nH]1 | -0.892
O=C(C1=C[C@@H](c2ccc(C(F)(F)F)cc2)C[C@@H](OCCCCO)O1)N1CCOCC1 | -3.65
Cc1c(NC(=O)CN2C(=O)NC(CCc3ccccc3)C2=O)c(=O)n(-c2ccccc2)n1C (stereo not shown) | 5.03
CCN(CC)CCNC(=O)C(=O)Nc1cc2c3c(c1)CCN3C(=O)CC2 | 4.8
NC(=O)C1CCN(CCC(=O)Nc2ccc(Br)cc2)CC1 | -26.8
CCN(CC)CCNC(=S)NC(=O)c1cn(-c2ccccc2)nc1-c1ccc(OC)cc1 | -27.3
COc1cc(OC)cc(-c2cc(N)n(S(=O)(=O)Cc3ccccc3)n2)c1 | -0.0642
Cc1ccc(C)c(NC(=O)CN(C)C(=O)c2cccc(S(=O)(=O)N(C)C)c2)c1 | 12.8
Cc1c(C(=O)N2CCN(CCc3ccccn3)CC2)oc2ccc(F)cc12 | -72.1
COc1ccc(/C=C/c2c(-c3ccc(OC)cc3)oc3cccnc23)cc1 | 22.7
NS(=O)(=O)c1ccc(S(=O)(=O)N2CCN(C3CCCC3)CC2)cc1 | 15.1
